Measured values: paper PMC12136788
The list shows a part of the results.

T1: UNK ZnF1-3 (human, UniProt Q9C0B0 31-174)
T1 sequence: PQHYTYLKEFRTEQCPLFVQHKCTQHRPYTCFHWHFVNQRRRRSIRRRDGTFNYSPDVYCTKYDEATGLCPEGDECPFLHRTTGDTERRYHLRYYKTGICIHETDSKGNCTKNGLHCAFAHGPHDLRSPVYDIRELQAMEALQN

B1: chr1:109605286:109605287:-_ENSG00000197780_ENST00000461096|hu_mus|hu_hu_hu_mus_True|8_98 (ssRNA)
RNA: GGGAGUUCUACAGUCCGACGAUCAAGUUUCAGAGUAUUCAGUGAUCACCUCUUUAAAUGCAAUUAUCCUUAUUAUAAGCUAAGCAGAAUAAUAAUUUAAUACCGUAAGUGAACUACACACAAAGCCGUGUAUUCAGAAAUGGUCAACAGAGGAUUGAGCAUCA
B2: 34756271_34756391_4016_CDS_ENSMUSG00000039967_ENSMUST00000047950|mouse|control|control (ssRNA)
RNA: GGGAGUUCUACAGUCCGACGAUCCUUGGGUUUUCUUUCCUUCCCAUUUGGGCCUCGACCACGGUCUUUUUUCACUUUCUUAGGUGUAGACGGUUGGGCACUGGUGCUACUGAAGUCAUCUGCAGAACUUACUUGGGAAGGAAACAACAGAGGAUUGAGCAUCA
B3: chr11:29606814:29606815:+_ENSMUSG00000020458_ENSMUST00000102843|mus_mus|motif|central (ssRNA)
RNA: GGGAGUUCUACAGUCCGACGAUCCACUUUAGUAAGGGUCGCAGGUGACUCUUGUGGAUUAUGAAGGGCUGCACUACAAACGGAAUCCUCUUUGUCUUUACUCCUCACAAUUACUUCUUCCUUAGUGUUUUCUACUAACAUGGCCAACAGAGGAUUGAGCAUCA
B4: chr8:11702082:11702083:-_ENSG00000164733_ENST00000533455|hu_hu|FALSE|FALSE (ssRNA)
RNA: GGGAGUUCUACAGUCCGACGAUCCGCUGUUCCACUGGCUCACCCACAUGAUUAGCAGAGUGCACGAAAAAAUAAAACUUCUAUUAAAGAAUCAUGCUGAGCACAAGAUCAGAGAGGUUGUGACAUUGCAAACUCGAUAGAUGCCAACAGAGGAUUGAGCAUCA
B5: 73659817_73744017_530_3pUTR_ENSMUSG00000049122_ENSMUST00000084474|mouse|control|control (ssRNA)
RNA: GGGAGUUCUACAGUCCGACGAUCCUCAAGCCAGUGCCUUUGCUUCUCUGGGUCCACAUAGCGAAUUCCAAAGUAGUCCUUUUCCAGCAGGCUAUAGUAGUUGCAGAUGUAUUCAAUGAGAAACUGCCCUUUCGUUUCCCUCUGCAACAGAGGAUUGAGCAUCA
B6: chr3:89866305:89866306:+_ENSMUSG00000027942_ENSMUST00000161918|mus_hu|FALSE|FALSE (ssRNA)
RNA: GGGAGUUCUACAGUCCGACGAUCUUCAUACGUUUUAUUUGAUAAUAGUUCAUUUUAUUAAAUAAUUUAUAAAGUCAGACCAGUGCAUUGGGCUUGUUAGGGGAAACCAUUCCUUCCUACUGUCACAUAGCCUGGCAGAUUAUACAACAGAGGAUUGAGCAUCA
B7: chr10:60036935:60036936:+_ENSG00000122873_ENST00000333926|hu_hu|FALSE|FALSE (ssRNA)
RNA: GGGAGUUCUACAGUCCGACGAUCGUGAAGGUUUAUCAUAGCUUUAUUUCGAUGAUCUUUAACAUAAAAUCUUUUGUAAGCUAGAUAACCAAUUGCAGCUGUCCCAGCAGCAAUGGUAACUGCUGCGAUCCAUUCAACUCGUACCAACAGAGGAUUGAGCAUCA
B8: chr6:41757443:41757444:+_ENSG00000214736_ENST00000398881|hu_mus|hu_hu_hu_mus_False|18_98 (ssRNA)
RNA: GGGAGUUCUACAGUCCGACGAUCGAACCGUGCAGAGACCAGAGAAUAGCCGACACUGGGGGAUGGGGGGGCAGUGGGGGGGGGUUCAGGCAAGGAGAGGGAGUCAACUUCAGCUGCUCAAACUUCAGGAUCUUGUGGUCACAGCAACAGAGGAUUGAGCAUCA
B9: chrX:20248820:20248821:+_ENSMUSG00000001924_ENSMUST00000001989|mus_mus|mus_mus_mus_hu_True|48_88 (ssRNA)
RNA: GGGAGUUCUACAGUCCGACGAUCGGCGAAGUCCGUCACCACAAAGUCAGGCUCUACCAGUGAGGCCACCAAGGAUUUAAAGCUAAUCUUUUUCGGUACUUUGACCUGACUGACGAUGCCUCCACGGAUGUAGUCGGAGAAGUUCAACAGAGGAUUGAGCAUCA
B10: chr6:41757443:41757444:+_ENSG00000214736_ENST00000398881|hu_mus|hu_hu_hu_mus_False|1_18 (ssRNA)
RNA: GGGAGUUCUACAGUCCGACGAUCGAACCGUGCAGAGGCAACAUCUCAGCCGACACUGGGGGAUGGGGGGGCAGUGGGGGGGGGUUCAGGCAAGGAGAGGGAGUCAACUUCAGCUGCUCAAACUUCAGGAUCUUGUGGGGCACACAACAGAGGAUUGAGCAUCA
B11: chr1:58468927:58468928:-_ENSMUSG00000026034_ENSMUST00000148330|mus_mus|mus_mus_mus_hu_False|38_38 (ssRNA)
RNA: GGGAGUUCUACAGUCCGACGAUCAAUUACUGAAAAAGAUGUUCAUUACCUUAGCUAUGUACUUAAUGAACCAAAUUACCCAAACAAAAUAAACAUGUUUACAAAUUAAUGUUAAGAAUUUACAAAGCUGUACAAAAUAACUUACAACAGAGGAUUGAGCAUCA
B12: chr9:35104861:35104862:-_ENSG00000005238_ENST00000378566|hu_hu|FALSE|FALSE (ssRNA)
RNA: GGGAGUUCUACAGUCCGACGAUCAGGAGUGAUGCCAAUUAUCAGGUGUGGGAGGUUACCAAGGCAAUCCAAUUUGAAUAAAUUAUAAAUUAAAAAUAAAUAAAAUAACAAGUGGCCCCUGCCCAGGACAGGGAGGCAACGCUGCAACAGAGGAUUGAGCAUCA
B13: chr2:148693158:148693159:-_ENSG00000115947_ENST00000542387|hu_mus|FALSE|FALSE (ssRNA)
RNA: GGGAGUUCUACAGUCCGACGAUCUGCCCACUGCCUAACAUCUGUAGGGCAGUUGGAGUAUUUCUGUAGAGCAUUCAUAAUUUGAGUAUUAUCCAAAAGUAGUUUCACUAGCUGGUAUUCUCUCUGAGAAUUUACUGAAGUUCUCAACAGAGGAUUGAGCAUCA
B14: 52911635_52912015_3817_CDS_ENSG00000134744_ENST00000257177|human|control|control (ssRNA)
RNA: GGGAGUUCUACAGUCCGACGAUCGGAAACUCCAGCACCAAGGUUAUGAUUCAAGUCAAAAGGGUCUUCAAUUGCAAUGCACUUGGAAGUCCACUGCUUCUCAAAAGUUGUCAACAGCUUUUUCUGCCGAAUGCUAAUUACAUACAACAGAGGAUUGAGCAUCA
B15: chrX:147030410:147030411:+_ENSG00000102081_ENST00000218200|hu_hu|FALSE|FALSE (ssRNA)
RNA: GGGAGUUCUACAGUCCGACGAUCUUUCAUGCCCUGUGCCAUCUUGCCUACUAUUUGUCUUUGGCCUAACAAAGUUUUCUAAUAUGGAAUAAGAAUUACGGAAAUGGUAUAGGAAAUAUAACUUCAGAAUUAUGCAGUUUAGGGCAACAGAGGAUUGAGCAUCA
B16: chr2:202488911:202488912:-_ENSG00000155755_ENST00000286196|hu_mus|hu_hu_hu_mus_False|88_88 (ssRNA)
RNA: GGGAGUUCUACAGUCCGACGAUCAUUGAAACAUUUUUCAUAAUCUCAGAGAUGUUUUCAGCAUUAUGUAACAAAAGCUCAAUUGUAAAUACAUGUAUCUUAUAAAAAUACACUUAAAAACACGAGUGGGGAGCGCAGGCGCCACAACAGAGGAUUGAGCAUCA
B17: chr14:89307221:89307222:+_ENSG00000165533_ENST00000346301|hu_mus|hu_hu_hu_mus_False|78_78 (ssRNA)
RNA: GGGAGUUCUACAGUCCGACGAUCUCCUGUUUGGUUAGUGCCAGGGAGCUUCAAAGACGUUCCAGGGCGUGGGACCUGAGCAAUAGCAUUUUCAUCCAGGAUCAUUUCAGCAAUUCCUUCCUGGUCCACAUCAAUUUCAUCUAUCAACAGAGGAUUGAGCAUCA
B18: chr13:13450785:13450786:-_ENSMUSG00000021306_ENSMUST00000021738|mus_mus|motif|central (ssRNA)
RNA: GGGAGUUCUACAGUCCGACGAUCGGCCAGAAGUAUUUAUUGUUAAUACUCUGUGGGGACCUCUUGGCUUGUAGCCUGACGGUAGCAAGCACUGGCUGAGUCAAAGAAGGCACAGUCCUUGCAUCCUACUGAGGUACUGAGGUACAACAGAGGAUUGAGCAUCA
B19: 73932000_73932120_1381_3pUTR_ENSG00000171617_ENST00000302351|human|control|control (ssRNA)
RNA: GGGAGUUCUACAGUCCGACGAUCAGUCAAGCAGCAGCUCCAAGACUUCUGGGUGGAUGGAAUUGUCAAAGUUGACCUCACUGUCCUGGCUCUCUUUCAGGCCACCACUGAACAUGGCCUCAAAGUAGCGACUGCAUGCAGCCACAACAGAGGAUUGAGCAUCA
B20: chr2:216225781:216225782:-_ENSG00000115414_ENST00000323926|hu_mus|FALSE|FALSE (ssRNA)
RNA: GGGAGUUCUACAGUCCGACGAUCAAUACUGGGAAAAAUUGAUAAAUAACAAACAGGUAAGAGAAAGGUAUUUCUAGGCAAUCUGAAUUGUUGGGACAAAGUGAGUCCUGUGGGAGGGGUGUUUGAACACACAGCCACAGGCCACAACAGAGGAUUGAGCAUCA
B21: chr3:101264221:101264222:+_ENSMUSG00000042035_ENSMUST00000043983|mus_hu|FALSE|FALSE (ssRNA)
RNA: GGGAGUUCUACAGUCCGACGAUCAAAUCUGUGAGUAGAUGUGGCACCUGGAGCUACUCACUACAUUACUAAAAACAGAAACAAGAAAUCUAUAAUGGCAGGAUCACAACAUUUGCGCGCAAAUAGCUAACCAACCAAGACUGCCAACAGAGGAUUGAGCAUCA
B22: chr5:122941739:122941740:-_ENSMUSG00000029467_ENSMUST00000031423|mus_mus|FALSE|FALSE (ssRNA)
RNA: GGGAGUUCUACAGUCCGACGAUCUCUUUCCUGCCACACACCCACGAUUGCAUUGGCUACCAAGAUAAGCAGAAUUACAAACGGCUCUACAAAGGCUGUAAUCGUUUCUUCCCCUUCCUCGAACCAAGCCAAAACGAAAGAUAUCAACAGAGGAUUGAGCAUCA

Molecular target: T1, UNK ZnF1-3
Assay: nsRBNS (natural sequence RNA bind-n-seq); RBNS binding buffer (assumed for nsRBNS): 25 mM Tris pH 7.5, 150 mM KCl, 3 mM MgCl2, 0.01% Triton X-100, 500 ug/ml BSA, 20 U/ml SUPERase-In, 4 C; UNK is unkempt and MSI1 is Musashi-1; names of the RNAs are library labels; protein concentration not given here; high values mean tight binding

Point of comparison: B7, binding signal 0.444 enrichment R. Against it:
- B1 — higher, 0.66 enrichment R
- B2 — lower, 0.322 enrichment R
- B3 — higher, 0.776 enrichment R
- B4 — higher, 2 enrichment R
- B5 — higher, 0.738 enrichment R
- B6 — higher, 1.91 enrichment R
- B8 — higher, 1.27 enrichment R
- B9 — higher, 0.971 enrichment R
- B10 — higher, 2.56 enrichment R
- B11 — higher, 0.966 enrichment R
- B12 — higher, 2.48 enrichment R
- B13 — higher, 1.15 enrichment R
- B14 — higher, 0.808 enrichment R
- B15 — higher, 1.72 enrichment R
- B16 — higher, 0.632 enrichment R
- B17 — higher, 0.861 enrichment R
- B18 — higher, 0.743 enrichment R
- B19 — higher, 1.28 enrichment R
- B20 — higher, 1.01 enrichment R
- B21 — higher, 1.67 enrichment R
- B22 — higher, 1.38 enrichment R
